# Key:
# [1] = system: barley powdery mildew fungi (Blumeria graminis f. sp. hordei); test: Test Example D: barley powdery mildew, spray treatment of barley plants; details: for pest or weed control at 250 µg/mL: Blumeria graminis, in Hordeum vulgare, read-out: Test D control value class (barley powdery mildew); for Test D control value: barley powdery mildew; for Test D control value class (barley powdery mildew): control value=100{1-(n/3)}
# [2] = system: grape downy mildew fungus (Plasmopara viticola); test: Test Example G: grape downy mildew, spray treatment of grape plants; details: for Test G control value: grape downy mildew, 7 to 10 days after inoculation; for Test G control value class (grape downy mildew): 2.5 ml/pot, grape Neomuscat, 7 to 10 days from inoculation
# [3] = system: gray mold fungi (Botrytis cinerea); test: Test Example B: tomato gray mold, spray treatment of tomato plants; details: for Test B control value: tomato gray mold; for Test B control value class (tomato gray mold): control value=100{1-(n/3)}
# [4] = system: wheat brown rust fungi (Puccinia recondita); test: Test Example E: wheat brown rust, spray treatment of wheat plants; format: in vivo; details: for Test E control value: wheat brown rust; for Test E control value class (wheat brown rust): control value=100{1-(n/3)}
# [5] = spray treatment of barley plants
# [6] = spray treatment of tomato plants
# [7] = spray treatment of wheat plants
smiles,measurement,setting,value
"Cc1cc(-n2cc(Cl)c(=O)c(Br)c2-c2c(F)cc(F)cc2F)no1 [Compound 141, 3-bromo-5-chloro-1-(5-methylisoxazol-3-yl)-2-(2,4,6-trifluorophenyl)pyridin-4(1H)-one]",pest or weed control at 250 µg/mL,[1],< 50%
"O=c1c(Br)cn(-c2ccccc2Cl)c(-c2c(F)cc(F)cc2F)c1Br [Compound 1, 3,5-dibromo-1-(2-chlorophenyl)-2-(2,4,6-trifluorophenyl)pyridin-4(1H)-one]",pest or weed control at 250 µg/mL,[1],> 50%
Cc1ccc(Cl)cc1-n1cc(Cl)c(=O)c(Cl)c1-c1c(F)cc(F)cc1F [Compound 241],Test G control value,[2]; 250 ppm spray (2.5 ml/pot),H (H shows the control value of more than 50%)
same,Test D control value,[1]; [5],H (H shows the control value of more than 50%)
same,Test B control value,[3]; [6],H (H shows the control value of more than 50%)
same,Test E control value,[4]; [7],H (H shows the control value of more than 50%)
Cc1c(Br)cccc1-n1cc(C)c(=O)c(C)c1-c1ccccc1 [Compound 565],Test G control value,[2]; 250 ppm spray,H (H shows the control value of more than 50%)
same,Test D control value,[1]; spray treatment,L (L shows the control value of 50% or less)
same,Test B control value,[3]; spray treatment,H (H shows the control value of more than 50%)
same,Test E control value,[4]; spray treatment,H (H shows the control value of more than 50%)
Cc1cn(-c2ccccc2)c(-c2c(F)cccc2F)c(C)c1=O [Compound 360],Test G control value,[2]; 250 ppm spray (2.5 ml/pot),H (H shows the control value of more than 50%)
same,Test D control value,[1]; [5],L (L shows the control value of 50% or less)
same,Test B control value,[3]; [6],H (H shows the control value of more than 50%)
same,Test E control value,[4]; [7],H (H shows the control value of more than 50%)
COc1ccc(C)c(-n2cc(C)c(=O)c(C)c2-c2c(F)cccc2F)c1 [Compound 383],Test G control value,[2]; 250 ppm spray,L (L shows the control value of 50% or less)
same,Test D control value,[1]; spray treatment,L (L shows the control value of 50% or less)
same,Test B control value,[3]; spray treatment,H (H shows the control value of more than 50%)
same,Test E control value,[4]; spray treatment,H (H shows the control value of more than 50%)
COc1cc(-n2cc(Br)c(=O)c(Cl)c2-c2ccccc2)c(C)cc1Br [Compound 414],Test G control value,[2]; 250 ppm spray,L (L shows the control value of 50% or less)
same,Test D control value,[1]; spray treatment,L (L shows the control value of 50% or less)
same,Test B control value,[3]; spray treatment,L (L shows the control value of 50% or less)
same,Test E control value,[4]; spray treatment,L (L shows the control value of 50% or less)
CCc1ccccc1-n1cc(Br)c(=O)c(CC)c1-c1c(F)cccc1F [Compound 509],Test G control value,[2]; 250 ppm spray,L (L shows the control value of 50% or less)
same,Test D control value,[1]; spray treatment,H (H shows the control value of more than 50%)
same,Test B control value,[3]; spray treatment,H (H shows the control value of more than 50%)
same,Test E control value,[4]; spray treatment,H (H shows the control value of more than 50%)
Cc1ccccc1-n1cc(Br)c(=O)c(C)c1-c1ccccc1 [Compound 357],Test G control value,[2]; 250 ppm spray (2.5 ml/pot),H (H shows the control value of more than 50%)
same,Test D control value,[1]; [5],L (L shows the control value of 50% or less)
same,Test B control value,[3]; [6],H (H shows the control value of more than 50%)
same,Test E control value,[4]; [7],H (H shows the control value of more than 50%)
CSc1ccc(-c2c(C)c(=O)c(C)cn2-c2ccccc2C)cc1 [Compound 254],Test G control value,[2]; 250 ppm spray (2.5 ml/pot),L (L shows the control value of 50% or less)
same,Test D control value,[1]; [5],L (L shows the control value of 50% or less)
same,Test B control value,[3]; [6],H (H shows the control value of more than 50%)
same,Test E control value,[4]; [7],L (L shows the control value of 50% or less)
Cc1ccc(OCC#N)cc1-n1cc(Br)c(=O)c(Cl)c1-c1c(F)cccc1F [Compound 428],Test G control value,[2]; 250 ppm spray,H (H shows the control value of more than 50%)
same,Test D control value,[1]; spray treatment,H (H shows the control value of more than 50%)
same,Test B control value,[3]; spray treatment,H (H shows the control value of more than 50%)
same,Test E control value,[4]; spray treatment,H (H shows the control value of more than 50%)
CC(C)Cn1cc(Br)c(=O)c(Br)c1-c1c(F)cc(F)cc1F [Compound 116],Test G control value class (grape downy mildew),[2]; 250 ppm spray,H (H shows the control value of more than 50%)
same,Test D control value class (barley powdery mildew),[1]; [5],H (H shows the control value of more than 50%)
same,Test B control value class (tomato gray mold),[3]; [6],H (H shows the control value of more than 50%)
same,Test E control value class (wheat brown rust),[4]; [7],H (H shows the control value of more than 50%)
O=c1c(Cl)cn(Cc2ccccc2)c(-c2c(F)cc(F)cc2F)c1Cl [Compound 48],Test G control value class (grape downy mildew),[2]; 250 ppm spray,H (H shows the control value of more than 50%)
same,Test D control value class (barley powdery mildew),[1]; [5],H (H shows the control value of more than 50%)
same,Test B control value class (tomato gray mold),[3]; [6],H (H shows the control value of more than 50%)
same,Test E control value class (wheat brown rust),[4]; [7],H (H shows the control value of more than 50%)
COc1ccc(-n2cc(Br)c(=O)c(Cl)c2-c2c(F)cc(F)cc2F)c(C)c1 [Compound 264],Test G control value,[2]; 250 ppm spray (2.5 ml/pot),H (H shows the control value of more than 50%)
same,Test D control value,[1]; [5],H (H shows the control value of more than 50%)
same,Test B control value,[3]; [6],H (H shows the control value of more than 50%)
same,Test E control value,[4]; [7],H (H shows the control value of more than 50%)
"O=c1c(Cl)cn(Cc2ccccc2)c(-c2c(F)cc(F)cc2F)c1Br [Compound 49, 1-benzyl-3-bromo-5-chloro-2-(2,4,6-trifluorophenyl)pyridin-4(1H)-one]",pest or weed control at 250 µg/mL,[1],> 50%
"CCC(C)Cn1cc(Cl)c(=O)c(Cl)c1-c1c(F)cc(F)cc1F (stereo not drawn) [Compound 162, 3,5-dichloro-1-(2-methylbutyl)-2-(2,4,6-trifluorophenyl)pyridin-4(1H)-one]",pest or weed control at 250 µg/mL,[1],> 50%
COc1cc(F)c(-c2c(Cl)c(=O)c(Br)cn2-c2cccnc2OC)c(F)c1 [Compound 40],Test G control value class (grape downy mildew),[2]; 250 ppm spray,L (L shows the control value of 50% or less)
CC(c1ccccc1)n1cc(Cl)c(=O)c(Cl)c1-c1c(F)cc(F)cc1F (stereo not drawn) [Compound 74],Test G control value class (grape downy mildew),[2]; 250 ppm spray,L (L shows the control value of 50% or less)
O=c1c(Cl)cn(-c2ccccc2)c(-c2c(F)cc(F)cc2F)c1Br [Compound 15],Test G control value class (grape downy mildew),[2]; 250 ppm spray,L (L shows the control value of 50% or less)
O=c1c(Br)cn(CCCC(F)(F)F)c(-c2c(F)cc(F)cc2F)c1Cl [Compound 71],Test G control value class (grape downy mildew),[2]; 250 ppm spray,L (L shows the control value of 50% or less)
Cc1ccccc1-n1cc(Br)c(=O)c(Br)c1-c1c(F)cc(F)cc1F [Compound 67],Test G control value class (grape downy mildew),[2]; 250 ppm spray,H (H shows the control value of more than 50%)
CCC(C)Cn1cc(Cl)c(=O)c(Br)c1-c1c(F)cc(OC)cc1F (stereo not drawn) [Compound 168],Test G control value class (grape downy mildew),[2]; 250 ppm spray,H (H shows the control value of more than 50%)
"COc1cc(F)c(-c2c(Cl)c(=O)c(Cl)cn2-c2ccccc2Cl)c(F)c1 [Compound 5, 3,5-dichloro-1-(2-chlorophenyl)-2-(2,6-difluoro-4-methoxyphenyl)pyridin-4(1H)-one]",pest or weed control at 250 µg/mL,[1],> 50%
"O=c1c(Br)cn(-c2ccccc2Cl)c(-c2c(F)cc(F)cc2F)c1Cl [Compound 2, 5-bromo-3-chloro-1-(2-chlorophenyl)-2-(2,4,6-trifluorophenyl)pyridin-4(1H)-one]",pest or weed control at 250 µg/mL,[1],> 50%
"O=c1c(Cl)cn(-c2ccccc2Cl)c(-c2c(F)cc(F)cc2F)c1Cl [Compound 4, 3,5-dichloro-1-(2-chlorophenyl)-2-(2,4,6-trifluorophenyl)pyridin-4(1H)-one]",pest or weed control at 250 µg/mL,[1],> 50%
"O=c1c(Br)cn(-c2cccnc2Cl)c(-c2c(F)cc(F)cc2F)c1Br [Compound 38, 3,5-dibromo-2′-chloro-2-(2,4,6-trifluorophenyl)-4H-[1,3′-bipyridin]-4-one]",pest or weed control at 250 µg/mL,[1],> 50%
"COc1cc(F)c(-c2c(C)c(=O)c(C)cn2-c2ccccc2C)c(F)c1 [Compound 175, 2-(2,6-difluoro-4-methoxyphenyl)-3,5-dimethyl-1-(o-toluyl)pyridin-4(1H)-one]",pest or weed control at 250 µg/mL,[1],> 50%
"Cc1ccccc1-n1cc(C)c(=O)c(C)c1-c1c(F)cc(F)cc1F [Compound 174, 3,5-dimethyl-1-(o-toluyl)-2-(2,4,6-trifluorophenyl)pyridin-4(1H)-one]",pest or weed control at 250 µg/mL,[1],> 50%
Cc1c(-c2c(F)cc(F)cc2F)n(CC(C)C)cc(Br)c1=O [Compound 219],Test G control value,[2]; 250 ppm spray (2.5 ml/pot),H (H shows the control value of more than 50%)
same,Test D control value,[1]; [5],H (H shows the control value of more than 50%)
Cc1ccc(Br)cc1-n1cc(Cl)c(=O)c(Cl)c1-c1c(F)cc(F)cc1F [Compound 250],Test G control value,[2]; 250 ppm spray (2.5 ml/pot),L (L shows the control value of 50% or less)
same,Test D control value,[1]; [5],L (L shows the control value of 50% or less)
Cc1ccccc1-n1cc(C)c(=O)c(C)c1-c1ccc(C(F)(F)F)cc1 [Compound 244],Test G control value,[2]; 250 ppm spray (2.5 ml/pot),L (L shows the control value of 50% or less)
same,Test D control value,[1]; [5],L (L shows the control value of 50% or less)
Cc1c(F)cccc1-n1cc(Cl)c(=O)c(Cl)c1-c1c(F)cc(F)cc1F [Compound 190],Test G control value,[2]; 250 ppm spray (2.5 ml/pot),L (L shows the control value of 50% or less)
same,Test D control value,[1]; [5],H (H shows the control value of more than 50%)
CCc1ccccc1-n1cc(C)c(=O)c(C)c1-c1c(F)cc(F)cc1F [Compound 326],Test G control value,[2]; 250 ppm spray (2.5 ml/pot),L (L shows the control value of 50% or less)
same,Test D control value,[1]; [5],H (H shows the control value of more than 50%)
"Cc1onc(-n2cc(Cl)c(=O)c(Br)c2-c2c(F)cc(F)cc2F)c1Br [Compound 142, 3-bromo-1-(4-bromo-5-methylisoxazol-3-yl)-5-chloro-2-(2,4,6-trifluorophenyl)pyridin-4(1H)-one]",pest or weed control at 250 µg/mL,[1],> 50%
